# Measurements from PubChem BioAssay (NCI).
#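 Briefly, cells in 96-well plates were exposed to five compound concentrations for 48 h, and endpoints were estimated by linear interpolation. Abbreviation: GI50, concentration required for 50% inhibition of growth. The concentration for full growth arrest is given as TGI.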
# Test system: NCI-H322M lung
# Experiment: growth of human tumour cells (NCI), 48 h
compound,measurement,value
CCOC(=O)C1=C(N)N(c2ccccc2)C2=C(C(=O)CC(C)(C)C2)C1c1ccc(Cl)cc1Cl (configuration not stated),GI50,77.1 µM
same,TGI,> 100 µM
